Results published in PubChem BioAssay (NCI).
Several values for one entry are separate records, joined by “and”; a condition that tells them apart may be missing. Equal entries are not always repeated.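 All cell lines were grown in 96-well plates and treated with compound for 48 hours. At the GI50, growth is halved. At the TGI there is no net growth.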 Peptide text beside a SMILES is read from it.

Each molecule was assayed on NCI-H322M lung (assay: NCI tumour cell line growth inhibition, 48 h).

| SMILES | TGI | GI50 |
| --- | --- | --- |
| CCOC(=O)CCC(NC(=O)c1ccc(CNc2nc3ccccc3nc2C(=O)OCC)cc1)C(=O)OCC (centres undefined) | > 100 µM |  |
| CCN(CC)CCCC(C)Nc1c2ccc(Cl)cc2nc2ccc(OC)cc12 (centres undefined) | 5.17 µM |  |
| COc1cc(S(=O)(=O)Nc2nc(-c3ccc(N4C(=O)C(CC(=O)O)SC4c4ccccc4O)cc3)cs2)ccc1Cl (centres undefined) | > 100 µM |  |
| O=C1c2cccc3cc([N+](=O)[O-])cc(c23)C(=O)N1CCCN1CCN(CCCNc2ccc3ncn4c5ccccc5c(=O)c2c34)CC1 | > 50 µM |  |
| COc1ccc2nc3c([N+](=O)[O-])ccc4c3c(c2c1)N=CN4CCCN(C)C | 9.46 µM |  |
| CCOC(=O)C1=CN/C(=C(/C)C(=O)OC)SC1C(=O)OCC (centres undefined) | > 100 µM |  |
| CC[C@@H]1OC2(C)CC(S(=O)(=O)c3ccccc3O)CC1O2 (some centres undefined) | > 100 µM |  |
| Nc1nc(Cl)c(N)c(NCC2(CO)CCC2)n1 | > 100 µM |  |
| NNC(=O)/C(=C/c1ccc(Cl)c(Cl)c1)NC(=O)c1ccccc1 | > 100 µM |  |
| Cc1csc2nc3c(cnn3C)c(=S)n12 | > 100 µM |  |
| CC(C)CS(=O)(=O)/C(=C(\c1ccc(Br)cc1)S(=O)(=O)CC(C)C)c1ccc(Br)cc1 | > 100 µM |  |
| N#C/C(=C\c1cn(Cc2ccccc2)c2ccccc12)c1nn(-c2ccccc2)c(N)c1C#N | 69.6 µM |  |
| COC(=O)c1c(O)ccc2c1c1c(n2Cc2ccccc2)C(=O)c2ccccc2C1=O | 29.1 µM |  |
| CC[C@H](NC(=O)[C@H](C)NC)C(=O)N1C[C@@H](O)C[C@H]1Cc1c(-c2[nH]c3cc(F)ccc3c2C[C@@H]2C[C@H](O)CN2C(=O)[C@H](CC)NC(=O)[C@H](C)NC)[nH]c2cc(F)ccc12 | > 100 µM | > 100 µM |
| O=C1NC(=O)C(Cc2ccccc2)(c2cccnc2)N1 (centres undefined) | > 100 µM |  |
| CCN1CCN(C(=O)[C@]23CC[C@@H](C)[C@H](C)[C@@H]2C2=CC[C@@H]4[C@@]5(C)C/C(=C/c6ccncc6)C(=O)C(C)(C)[C@@H]5CC[C@@]4(C)[C@]2(C)CC3)CC1 | 3.05 µM | 1.59 µM |
| CCNC(=O)CCN(C(=O)O)S(=O)(=O)c1ccc(NC(=O)c2ccccc2)cc1 | > 100 µM |  |
| CCOC(=O)C(C(=O)OCC)=C1NC2(c3ccccc3Nc3ccc(C)cc32)C(C#N)S1 (centres undefined) | 42.5 µM |  |
| COc1cccc(OC/C(N=Cc2cccnc2)=N/NC(=O)c2ccncc2)c1 | > 100 µM |  |
| CSc1ccc(C2=NN(C(=O)c3ccc(F)cc3)C(c3ccc(F)cc3)C2)cc1 (centres undefined) | 29.7 µM | 16 µM |
| O=C1Nc2ccc(C(=O)c3ccco3)cc2/C1=C/c1cc(Cl)c(O)c(Cl)c1 | > 23.3 µM | 6.37 µM |
| CSc1nc(C)c2c(n1)SCC2 | > 10 µM |  |
| O=S(=O)(NC1=NCCN1C(=S)SN1CCn2c1nsc2=S)c1ccc(Br)cc1 | > 100 µM | > 100 µM |
| CNc1c2cccc(C)c2nc2c(C(=O)NCCN(C)C)cccc12 | 0.617 µM |  |

| SMILES | TGI | GI50 |
| --- | --- | --- |
| CC(C)=CCCC(C)c1ccc(C)c2c1OCN(CC1CCNCC1)C2 (centres undefined) | 38.8 µM | 19.4 µM |
| O=C1c2ccccc2-c2cccc3ccc(Cc4ccc5ccccc5c4)c1c23 | > 100 µM |  |
| O=c1c(Oc2ccc(F)cc2F)cc2cnc(NC3CCOCC3)nc2n1C1CCS(=O)(=O)CC1 | > 25 µM | > 25 µM |
| Cc1ccccc1NC(=O)N/C(N)=N/c1nc(-c2cccc([N+](=O)[O-])c2)cs1 | > 100 µM | 3.03 µM |
| CC(C)(C)O/C=C1/C(=O)OC2C[C@@H](O[Si](C)(C)C(C)(C)C)CC12 (some centres undefined) | > 100 µM |  |
| CC(=O)N[C@H]1C=C[C@@H]2/C=C(C)/C=C/[C@@H](C)[C@H]([C@H](C)[C@H](O)[C@@H](C)NC(C)=O)OC(=O)/C=C/C=C(C)\C=C\[C@]2(C)C1 | 4.65 µM and > 45 µM | 0.0957 µM and 0.348 µM |
| CC(=O)C(=[N+]=[N-])C(=O)NCC#N | > 10 µM |  |
| COc1ccc(/C=N\NC(=O)CN2CCN(c3cc4c(cc3F)c(=O)c(C(=O)N/N=C/c3ccc(OC)c(OC)c3)cn4C3CC3)CC2)cc1OC | 12.9 µM | 2.83 µM |
| COC(=O)c1cc2c(o1)Sc1ccccc1NC2=O | > 100 µM |  |
| COc1c2nc(CCl)[nH]c(=O)c2c(OC)c2nc(CCl)[nH]c(=O)c12 | > 100 µM |  |
| O=C1c2ccccc2C(=O)N1CCCSc1ccccc1 | > 100 µM |  |
| Cc1oc2c(c1C)S(=O)(=O)C(C#N)=C(c1ccccc1)N2 | > 100 µM |  |
| CN(C)C=C1C(=O)c2c(Br)sc(Br)c2C1=O | 51.6 µM |  |
| CO[C@H]1c2cccc3cccc(c23)[C@@H]1n1[nH]c(=O)n(C(C)(C)C)c1=O | > 100 µM |  |
| C[C@]12C[C@H](c3ccccc3)Nc3ccccc3N1C(c1ccccc1)=NO2 | > 100 µM |  |
| CCCCCCCCCCCCCCCCCCNc1ccn(C2OC(COP(=O)(O)OC3CC(n4cc(F)c(=O)[nH]c4=O)OC3COP(=O)(O)OCC3OC(n4ccc(N)nc4=O)C(O)C3O)C(O)C2O)c(=O)n1 (centres undefined) | > 100 µM |  |
| COc1cc(C2SCC(=O)N2c2ccccc2Cl)cc(OC)c1OC (centres undefined) | > 100 µM |  |
| CCOC(=O)C(Cl)(NC(=O)NC(Cl)(C(=O)OCC)C(F)(F)F)C(F)(F)F (centres undefined) | > 100 µM |  |
| CC(C)c1ccc(C(=O)Nc2nc3ccc(O)cc3s2)cc1 | > 100 µM | 3.22 µM |
| O=C1CC(=O)NC(=NN2C(=O)/C(=C/C(=O)c3ccco3)N=C2c2ccccc2)N1 | > 100 µM |  |
| COc1cc2c[n+](C)c3c4cc5c(cc4ccc3c2cc1OC)OCO5 | 42.8 µM |  |
| Cc1oc2c(c1C)S(=O)(=O)C(C#N)C(c1ccccc1)N2 (centres undefined) | > 100 µM |  |
| O=C1CC(NC(=O)C(F)(F)F)c2c1csc2Br (centres undefined) | > 100 µM |  |
| CCN(CC)CSc1nc2ccccc2o1 | > 100 µM |  |

| SMILES | TGI | GI50 |
| --- | --- | --- |
| COc1ccc(OC)c2sc(N3C(=O)/C(=C/c4ccc(Cl)cc4)N=C3c3ccccc3)nc12 | > 100 µM |  |
| Cn1c([N+](=O)[O-])cnc1/C=C1\Oc2ccccc2C1=O | 11.6 µM | 2.88 µM |
| COc1cc(/C=C(\C#N)C(=O)c2ccccc2)ccc1OCc1ccccc1 | > 100 µM |  |
| N#CC(C#N)N=Cc1ccncc1 | > 100 µM |  |
| C=CC1(C(=O)O)CCC(C(C)(C)C)CC1 (centres undefined) | > 100 µM |  |
| COc1ccc([N+](=O)[O-])c2c(NCCCN(C)C)c3ccccc3nc12 | 3.71 µM |  |
| COc1cc(/C=C(\C#N)c2nc3ccccc3o2)ccc1O | 36.5 µM |  |
| O=[N+]([O-])c1cc(Cl)c(Cl)c([N+](=O)[O-])c1Cl | 5.68 µM | 2.1 µM |
| CO[C@@H]1/C=C\C=C(/C)C(=O)NC2=CC(=O)C(NCCN(C)C)=C(C[C@@H](C)C[C@@H](OC)[C@@H](O)[C@H](C)/C=C(\C)[C@H]1OC(N)=O)C2=O | 2.15 µM and 16.3 µM |  |
| CCN(CC)C1Oc2cc3c(cc2C(c2ccc(OC)cc2)C1C)OCO3 (centres undefined) | 57.4 µM |  |
| O/N=C(\c1ccccc1)N1CCCCC1 | > 100 µM |  |
| COc1ccc(-c2onc(-c3ccc([N+](=O)[O-])cc3)c2C2=NCCN2)cc1 | > 100 µM |  |
| CC12OC(c3ccccc3)=CC(c3ccc(Cl)cc3)=C1C(c1ccccc1)=CC2=O (centres undefined) | > 100 µM | > 100 µM |
| CCOC(=O)C(N)C[S][Sn]([CH3])([CH3])[Cl] (centres undefined) | > 100 µM | > 100 µM |
| O=[n+]1c2ccccc2n([O-])c2ccccc21 | 88.2 µM |  |
| O=C(Nc1cccc2ccccc12)Nn1cnnc1 | > 100 µM |  |
| C=CCC(N[C@H](CO)c1ccccc1)c1ccc2ccccc2n1 (some centres undefined) | > 100 µM | > 100 µM |
| CC1=NN(C(=O)CC(=O)Nc2ccc(C)cc2)C(=O)C1N=Nc1ccc(C(=O)O)cc1 (centres undefined) | > 100 µM |  |
| Cc1cc(I)cc(CN(C)CCCN2CCSCC2)c1O | > 100 µM | 76.7 µM |
| Cc1cc(C)nc(NS(=O)(=O)c2ccc(NNc3c4ccccc4nc4c(C(=O)Nc5ccc(S(=O)(=O)Nc6ncccn6)cc5)cccc34)cc2)n1 | > 100 µM |  |
| COC(=O)C(Cc1c[nH]c2ccccc12)N=C1Nc2ccncc2S(=O)(=O)N1c1ccccc1 (centres undefined) | 56.1 µM |  |
| CCOC(=O)NNC(=O)C1CSC(c2ccccc2)N1C(C)=O (centres undefined) | > 100 µM |  |
| COc1cc(OCc2nc3ccccc3n3cccc23)cc(OC)c1OC | > 100 µM |  |
| NC1(C(=O)NC2(C(=O)O)CCCC2)CCCC1 (HELM PEPTIDE1{[NC1(C(=O)[*:2])CCCC1].[O=C(O)C1(N[*:1])CCCC1]}$$$$V2.0) | > 100 µM |  |

| SMILES | TGI | GI50 |
| --- | --- | --- |
| COC(=O)c1cc2c(cc1Cl)SC(N(N(C)C)S(=O)(=O)c1ccc(Br)s1)=NS2(=O)=O | > 100 µM | 32.4 µM |
| NC(=O)C(=Cc1ccc(C(O)P(=O)(O)O)cc1)C(N)=O (centres undefined) | > 100 µM |  |
| O=C(O[C@H]1CN[C@H](C#Cc2cc3ncnc(Nc4ccc5c(ccn5Cc5cc(F)ccc5F)c4)c3s2)C1)N1CCOCC1 | > 19.9 µM | 0.292 µM |
| O=C(N/N=C/c1ccc2c(c1)OCO2)Nc1ccccc1Cl | > 70.8 µM |  |
| COc1cc(Cl)c2c3c(c(C(C)=O)oc13)CCC2 | > 100 µM |  |
| COc1cc(Nc2nccc(Nc3ccc4c(C)[nH]nc4c3)n2)cc(OC)c1OC | 13.5 µM | 1.98 µM |
| CCOC(=O)C(SCCO)C(C(=O)OCC)n1cnc2c(N)ncnc21 (centres undefined) | > 100 µM |  |
| O=C1C(=O)c2c(oc(=O)c3ccccc23)-c2ccccc21 | > 25 µM |  |
| COc1cc(OCc2ccc3nc(-c4ccccc4)c(Cl)nc3c2)cc(OC)c1OC | > 100 µM |  |
| Cc1cc(Cl)ccc1NC(=O)CCCC(=O)C1CCCC1=O (centres undefined) | > 100 µM |  |
| COc1cc(C(=O)/C(C)=C/c2c[nH]c3ccccc23)cc(OC)c1OC | > 100 µM |  |
| CC1(C)C2CCC3=C(CCC4(C)C5C[C@](C)(C(=O)O)CC[C@]5(C)CC[C@]34C)[C@@]2(C)CC[C@@H]1O (some centres undefined) | 39.1 µM |  |
| CC(=O)CC(=O)Nc1ccc2ccccc2c1 | > 100 µM |  |
| Cc1ccc2nc(CN3CCCC(O)C3)cc(=O)n2c1 (centres undefined) | > 100 µM |  |
| Cc1c[nH]c2c(O)cc3c(c12)[C@H](CCl)CN3C(=O)c1cc2cc(NC(=O)Nc3ccc4[nH]c(C(=O)N5C[C@@H](CCl)c6c5cc(O)c5[nH]cc(C)c65)cc4c3)ccc2[nH]1 | 71.7 µM and 0.0067 µg/mL | 23.3 µM and 8.9e-07 µg/mL |
| O=C(Nc1cc(Cl)c(Cl)cc1Cl)C(=O)C1C=CCS1(=O)=O (centres undefined) | > 100 µM |  |
| ClC1(Cl)C(c2ccccc2)C1c1ccccc1 (centres undefined) | > 100 µM |  |
| O=c1ccn(C2OC(CO)C(O)C2F)c(=O)[nH]1 (centres undefined) | > 1000 µM | > 1000 µM |
| COc1cc2c(cc1OCCCOc1cc3c(cc1OC)C(=O)N1C[C@H](F)C[C@H]1C=N3)N=C[C@@H]1C[C@@H](F)CN1C2=O | 31.9 µM | 13.5 µM |
| CC(=O)Oc1cc2c(n(C)c1=O)-c1ccccc1C2 | > 100 µM |  |
| CCN(CC)c1cc2c3c(c1)CCCN3CCC2 | > 10 µM |  |
| COC(=O)C(C)NP(=O)(N1CC1)N1CC1 (centres undefined) | > 100 µM |  |
| Cc1ccc2c(c1)C(=O)/C(=N/Nc1ccc(Cl)cc1)CCO2 | > 100 µM |  |
| COc1ccc(/C=C2\CCC(CNc3cc(C)on3)C2=O)cc1 (centres undefined) | > 100 µM |  |
